Assay results: PMC4336329 (PLoS ONE, 2015)
The campaign covered roughly 310,000 compounds. About 2,200 (0.71%) showed an effect of 50% or more. The effect is printed as a negative number. Some of the results follow.

The molecules below were run against human ether-à-go-go-related gene (hERG) potassium channel (human, UniProt Q12809) (assay: primary screen, population patch clamp on CHO cells stably expressing hERG).
Sequence of human ether-à-go-go-related gene (hERG) potassium channel (Q12809 whole entry, looked up): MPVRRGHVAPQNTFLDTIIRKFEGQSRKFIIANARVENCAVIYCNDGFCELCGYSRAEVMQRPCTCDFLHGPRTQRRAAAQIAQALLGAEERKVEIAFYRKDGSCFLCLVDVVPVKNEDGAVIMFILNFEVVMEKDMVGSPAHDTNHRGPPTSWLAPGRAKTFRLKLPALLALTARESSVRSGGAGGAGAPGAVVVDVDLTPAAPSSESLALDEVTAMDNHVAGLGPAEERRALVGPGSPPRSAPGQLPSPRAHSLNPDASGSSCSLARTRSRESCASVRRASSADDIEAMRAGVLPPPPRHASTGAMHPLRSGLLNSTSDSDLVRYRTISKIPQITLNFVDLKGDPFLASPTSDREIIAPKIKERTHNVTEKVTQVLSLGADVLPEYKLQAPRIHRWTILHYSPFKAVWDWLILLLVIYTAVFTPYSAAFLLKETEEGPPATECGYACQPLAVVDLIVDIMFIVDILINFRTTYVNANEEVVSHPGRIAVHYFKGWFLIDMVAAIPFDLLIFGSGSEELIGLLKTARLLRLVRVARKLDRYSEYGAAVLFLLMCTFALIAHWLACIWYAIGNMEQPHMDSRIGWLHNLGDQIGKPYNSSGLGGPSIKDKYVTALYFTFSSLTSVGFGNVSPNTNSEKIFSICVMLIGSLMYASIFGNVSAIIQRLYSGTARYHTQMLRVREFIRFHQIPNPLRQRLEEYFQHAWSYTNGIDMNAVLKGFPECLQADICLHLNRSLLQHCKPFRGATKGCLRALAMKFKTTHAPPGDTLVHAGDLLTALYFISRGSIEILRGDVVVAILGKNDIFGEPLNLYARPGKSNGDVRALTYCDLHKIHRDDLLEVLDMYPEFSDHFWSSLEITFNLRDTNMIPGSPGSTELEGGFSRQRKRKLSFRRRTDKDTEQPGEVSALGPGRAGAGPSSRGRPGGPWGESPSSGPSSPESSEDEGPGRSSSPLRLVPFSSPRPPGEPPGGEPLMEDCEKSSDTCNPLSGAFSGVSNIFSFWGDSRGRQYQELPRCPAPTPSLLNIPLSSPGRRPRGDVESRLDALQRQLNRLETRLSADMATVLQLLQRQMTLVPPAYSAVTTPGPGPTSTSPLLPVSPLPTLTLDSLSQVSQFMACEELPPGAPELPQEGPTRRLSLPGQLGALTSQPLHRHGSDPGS

Compound | hERG current change (%, negative = inhibition) at 1uM
Cc1nnc(NC(=O)Cc2ccc(OCc3c(C)noc3C)cc2)s1 | 10.7%
Cc1cc(C)c(NC(=S)N(CCN2CCCCC2)Cc2ccco2)c(C)c1 | -10.1%
CC(C)(C)NC(=O)/C=N/O | 14.9%
O=C1C(=O)N(Cc2ccncc2)C(c2ccccc2F)/C1=C(\O)c1ccc2c(c1)OCCO2 (centres unmarked) | 18%
CC(C)c1ccc2occ(-c3nn[nH]n3)c(=O)c2c1 | 11.1%
COc1ccc(CCNC(=O)CC(=O)N/N=C/c2ccc(C(=O)O)cc2)cc1OC | 16%
CC12CN3CCN(CC(C3)C1(O)CN1CCOCC1)C2 (centres unmarked) | 2.88%
C/C=C/c1ccc(OCCCCNCc2ccco2)c(OC)c1.O=C(O)C(=O)O | -62.6%
CC(=O)c1c(C)[nH]c(C(=O)OCC(=O)Nc2sc3c(c2C#N)CCC(C)C3)c1C (centres unmarked) | 11.9%
COc1ccccc1OCc1nnc(SCC(=O)NCc2ccco2)n1-c1ccccc1 | 9.23%
COCCNC(=O)COc1ccc(C)cc1C | 4.04%
CC(=O)Nc1cccc(Nc2nc(-c3cccs3)nc3ccccc23)c1 | 8.71%
CC(Sc1nc2ccccc2[nH]1)C(=O)Nc1ccc2c(c1)OCCO2 (centres unmarked) | 13.9%
CCN(C1CCCCC1)S(=O)(=O)c1cc2c3c(c1)CCN3C(=O)CC2 | -0.668%
CCCOc1ccccc1N/C(N)=N/c1nc(C)cc(C)n1 | -59.4%
O=C(COC(=O)CNS(=O)(=O)/C=C/c1ccccc1)NC1CCS(=O)(=O)C1 (centres unmarked) | 18.2%
Cc1ccc(Cl)cc1NC(=O)Cn1nc(-c2cccs2)ccc1=O | 13.5%
CCOC(=O)c1cc2c(=O)c3ccccc3oc2nc1C | 8.42%
CN(C)S(=O)(=O)c1cccc(-c2csc(N/N=C/c3ccco3)n2)c1 | 11.8%
COc1cccc(C(=O)C(C#N)=C(SC)SC)c1 | 9.51%
Cc1cccc(NC(=S)N(C)Cc2cn(C)c3ccccc23)c1 | 6.6%
O=C(O/N=C1\CCCc2ccccc21)c1ccc(F)cc1 | 1.44%
Cc1cc(C(=O)CCl)c(C)n1-c1cccc([N+](=O)[O-])c1 | 11%

Compound | hERG current change (%, negative = inhibition) at 1uM
O=C(NC(=S)Nc1ccc(S(=O)(=O)N2CCCCCC2)cc1)c1cccs1 | 0.562%
CC1CCC(NC(=O)Cn2ncc3ccccc32)CC1 (centres unmarked) | 2.18%
C=CCn1c(SCc2csc(C)n2)nc2sc3c(c2c1=O)CCCC3 | 10.2%
CC(=O)c1ccc(N2CCN(C(=O)C(=O)c3c(C)[nH]c4ccccc34)CC2)cc1 | -2.31%
COc1cccc(-c2nc3n(n2)C(c2ccc4c(c2)OCO4)C(C(N)=O)=C(C)N3)c1 (centres unmarked) | 6.43%
COc1ccc(Cn2nnnc2C(c2cc3cccc(C)c3[nH]c2=O)N2CCOCC2)cc1 (centres unmarked) | -14.6%
C=CCn1c(COc2cccc3cccnc23)nnc1SCC(=O)OC | 12.8%
C[C@H](NC(=O)c1nc[nH]c1C(=O)OCc1ccccc1)c1ccccc1 | 6.37%
CCN1CCN(C(c2ccc(F)cc2)c2nnnn2Cc2ccc3c(c2)OCO3)CC1.Cl (centres unmarked) | -19.6%
O=C(CCS(=O)CCC(=O)NCc1ccccc1)NCc1ccccc1 | 17%
COc1ccc(NC(=O)NC2(C(=O)N3CCCC(C)C3)CCCCC2)cc1 (centres unmarked) | 14.1%
CC(=O)c1cccc(NC(=O)C(C)OC(=O)C2CCC2)c1 (centres unmarked) | 7.5%
CC(=O)c1cccc(CN2CCC(C(=O)Nc3ccc(-c4cccc(C)c4)cc3)CC2)c1 | 6.83%
CCCCn1c(N)c(N(CC(C)C)C(=O)C2CC(=O)N(CCc3ccccc3)C2)c(=O)[nH]c1=O (centres unmarked) | 9.06%
COc1ccc(-c2cc(=O)oc3cc(OCC(=O)NCC(O)c4ccccc4)ccc23)cc1 (centres unmarked) | 11.1%
CCC(=NCC1CCCO1)c1c(O)n(Cc2ccccc2)c(=O)[nH]c1=O (centres unmarked) | -17.2%
O=C(NCc1cccnc1)c1ccc(COc2ccc(Cl)cc2)cc1 | -31.1%
COC(=O)CN1C(=O)C(C)=C(c2ccc(C)cc2)S1(=O)=O | -4.88%
CCOC(=O)c1[nH]c2ccc(F)cc2c1NC(=O)c1ccccc1C(=O)O | 15%
COc1cccc(/C=C2/SC(=O)N(CC(=O)N3CCc4ccccc4C3)C2=O)c1OCC(=O)O | 9.5%
N#Cc1c(N)nc2c(c1N)CC(=O)N2c1ccc(Cl)cc1 | 10.9%
O=C(Cc1ccc(Cl)cc1)NNC(=O)c1cnccn1 | 14.3%
COc1ccc(Br)cc1C(=O)Nc1ccc(C(=O)NCC(C)C)cc1 | 1.16%

Compound | hERG current change (%, negative = inhibition) at 1uM
CCc1nnc(NC(=O)C2CCCN2S(=O)(=O)c2ccc(C)cc2)s1 (centres unmarked) | 11.8%
c1ccc(-c2nn[nH]n2)cc1 | 9.31%
CC1CN=C(N(C(=O)Nc2ccccc2)c2ccc(F)cc2)S1 (centres unmarked) | 0.926%
COc1ccccc1N1CCN(S(=O)(=O)c2ccc3c(c2)n(C)c(=O)n3C)CC1 | -2.43%
CCC(c1nnnn1Cc1ccco1)N(CCc1ccccc1)Cc1cc2cccc(C)c2[nH]c1=O (centres unmarked) | 11.4%
COc1ccc(Nc2ncc(C(=O)N3CCC4(CC3)OCCO4)c3ccccc23)cc1 | 10.6%
Cc1ccc(C(=O)COC(=O)C2CC(=O)N(c3nc(-c4ccccc4)cs3)C2)cc1 (centres unmarked) | 12.3%
Cc1ccccc1CC1(CO)CCCN(C(=O)c2ccccc2N(C)C)C1 (centres unmarked) | 10.9%
CCOc1ccc(Cc2nnc(SCC(=O)Nc3ccc(OC)cc3)n(N)c2=O)cc1 | 14.8%
COc1ccc(OC)c(S(=O)(=O)N2CCN(C)CC2)c1 | -1.71%
O=c1[nH]c(COc2ccc(Cl)cc2Br)nc2ccccc12 | 8.21%
O=C(O)CN1C(=O)/C(=C/c2ccccc2Cl)Oc2ccccc21 | 14%
CCOC(=O)c1cn2cccnc2n1 | 19.2%
Cc1nc(CNC(=O)CC2C(=O)NCCN2Cc2ccc(F)cc2)cs1 (centres unmarked) | -0.332%
O=C(CC1NC(=O)NC1=O)Nc1ccccc1 (centres unmarked) | 0.887%
O=S(=O)(c1ccc2oc3ccc(S(=O)(=O)N4CCCCC4)cc3c2c1)N1CCCCC1 | 3.81%
COc1ccc(-c2noc(CCC(=O)Nc3cccnc3)n2)cc1OC | 0.221%
COc1ccc(NC(=O)c2cc(-c3ccccc3Cl)on2)cc1OC | 13.8%
c1ccc2[nH]c(-c3cnco3)cc2c1 | 9.59%
CCOC(=O)c1c(NC(=O)c2ccco2)sc(C(=O)N2CCCC2)c1C | 12.5%
CC(C)CC(=O)NCCc1ccncc1 | 8.96%
Cc1ccc(C2c3sc(=O)[nH]c3SC3C4CC(C5C(=O)N(C(C)C(=O)O)C(=O)C45)C23)cc1 (centres unmarked) | 14%
CC(NC(=O)c1ccccc1NC(=O)c1ccco1)c1ccccc1 (centres unmarked) | 0.222%

Compound | hERG current change (%, negative = inhibition) at 1uM
Cc1c(NC(=O)c2cccc(NC(=O)Cc3ccc(F)cc3)c2)c(=O)n(-c2ccccc2)n1C | 11%
CN(C)C(CNC(=O)c1coc2ccccc2c1=O)c1ccccc1 (centres unmarked) | 16.1%
Cc1cc(Cl)ccc1C1=CC(=O)C[C@H](c2ccc(F)cc2)C1 | 16.1%
Cl.N=c1sccn1CC(=O)Nc1cc(Cl)ccc1Oc1ccccc1 | -44.9%
CCOc1ncccc1C(=O)OCc1c(F)cccc1Cl | 12.8%
Cc1onc(-c2ccccc2)c1C(=O)NCc1ccc(F)cc1 | 6.13%
CCC(C(=O)NCc1ccc(C)o1)n1nc(C)c2c(C)n(-c3ccccc3)nc2c1=O (centres unmarked) | 13.9%
Cc1cc(CN(C)C(=O)CCc2nnc(Cc3cccc(C(F)(F)F)c3)o2)on1 | 5.25%
Cl.NCCc1ccc(S(=O)(=O)F)cc1 | 1.95%
O=C(O)CCc1ccc(S(=O)(=O)Nc2ccccc2C(=O)NCCc2ccccc2)cc1 | 14.8%
CN1CCN(c2nc(-c3ccccc3)nc(-c3ccccc3)c2C#N)CC1 | 13.9%
O=C1Cc2cc(S(=O)(=O)Nc3ccccc3Cl)cc3c2N1CCC3 | 14.8%
O=C(Nc1ccc(F)cc1F)N1CCN(c2ncccn2)CC1 | 1.83%
Cc1cc(NC(=O)c2ccc3c(c2)C(=O)N(Cc2ccccc2)C3=O)no1 | 15.3%
CN(C)c1ccc(C#Cc2ccc3cc(CCCO)oc(=O)c3c2)cc1 | 28.3%
O=S(=O)(c1ccc(-c2ccno2)s1)N1CCCCC1 | 5.11%
Cc1nnsc1SCC(=O)O | -3.05%
COC(=O)c1cc(NC(=O)Nc2cc(OC)ccc2OC)cc(C(=O)OC)c1 | 0.0433%
O=C(O)CCCCCN1C(=O)/C(=C\c2ccncc2)SC1=S | 10.3%
O=C(O)C(F)(F)C(NCc1ccccc1)c1ccccc1 (centres unmarked) | 15.5%
